± gives the uncertainty stated by the source. Whole data set: some 9,900 compounds, median “viability index relative to DMSO control” near 1, cut for the lowest 2% near 0.85. Some of the results follow.
System: Plasmodium falciparum NF54 stage V gametocytes
Assay: viability index relative to DMSO control (fraction); higher = less gametocyte killing
Conditions: 2.5 µM, incubation time: 72 h
Procedure, shortened: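 Compound at 2.5 µM was incubated for 72 hr at 37°C under low oxygen with P. falciparum NF54 stage V gametocytes (0.75% gametocytemia, 1.25% hematocrit, 10 µl, serum-free screening medium) in 1,536-well plates. Staining used 3 µl of 2.5 µM MitoTracker Red CMXRos plus 0.13% saponin for one to two hours, and red particles of 20–70 µm2 were counted in one imaged field per well. Each viability index is that count relative to the plate mean of solvent-only wells.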

[1] = library set: Broad Institute DOS

SMILES	viability index [1]	viability index (library set: Broad Institute Blood Stage)
COc1ccc(S(=O)(=O)N(C)C[C@H]2Oc3ccc(NC(=O)Nc4ccc(C(F)(F)F)cc4)cc3C(=O)N([C@@H](C)CO)C[C@@H]2C)cc1	1.02 ± 0.065	
CNC[C@@H]1Oc2c(N)cccc2C(=O)N([C@H](C)CO)C[C@H]1C	0.995 ± 0.088	
COc1ccc(C#Cc2cccc(-c3nc(C(=O)NCCCN4CCOCC4)cc4c3[C@@H](CCO)N(S(=O)C(C)(C)C)C4)c2)cc1OC (some centres undefined)	1.08 ± 0.014	
C[C@@H]1CCCCO[C@H](CN(C)C(=O)CCC(F)(F)F)[C@H](C)CN([C@H](C)CO)C(=O)c2cc(NC(=O)C3CCCCC3)ccc2O1	1.05 ± 0.034	
Cc1cccc(-c2ccc([C@@H]3[C@@H](CO)N4CCCCN(S(=O)(=O)c5ccccc5F)C[C@@H]34)cc2)c1	1.1 ± 0.096	
CCC(=O)N1C[C@H]2[C@@H](c3ccccc31)[C@H](CO)N2C(=O)CC1CC1	0.955 ± 0.082	
COc1ccc(C(=O)N2C[C@@H]3[C@H](c4ccccc42)[C@@H](CO)N3C(=O)Cc2ccccn2)cc1	0.977 ± 0.048	
C[C@@H]1CN([C@@H](C)CO)C(=O)c2cc(NS(=O)(=O)c3cccs3)ccc2O[C@@H](C)CCCCO[C@H]1CN(C)C(=O)c1ccncc1	1.07 ± 0.045	
CN1C(=O)c2cc(NC(=O)Nc3ccccc3F)ccc2OC[C@H]2O[C@@H](CC(=O)NCCc3ccncc3)CC[C@H]21	1.07 ± 0.087	
COc1ccccc1-c1cccc(-c2nc(C(=O)NCc3ccncc3)cc3c2[C@@H](CCO)N([S@](=O)C(C)(C)C)C3)c1	1.01 ± 0.04	
O=C(CCN1CCCCC1)N[C@@H]1CC[C@H](CCn2cc(-c3cccc(F)c3)nn2)O[C@H]1CO	1.13 ± 0.015	
CN1C(=O)c2cc(NC(=O)Nc3ccccc3F)ccc2OC[C@@H]2O[C@H](CC(=O)NCCc3ccncc3)CC[C@@H]21	0.937 ± 0.08	
C/C=C/c1ccc([C@@H]2[C@H](CO)N(CCC(F)(F)F)C23CN(C(=O)CC2CC2)C3)cc1	1.106 ± 0.0046	
C[C@@H]1CCCCO[C@H](CN(C)C(=O)Nc2ccc3c(c2)OCO3)[C@H](C)CN([C@H](C)CO)C(=O)c2cc(NS(=O)(=O)c3ccc(F)cc3)ccc2O1	1.05 ± 0.035	
Cc1noc(C)c1S(=O)(=O)N(C)C[C@H]1OCCCC[C@@H](C)Oc2ccc(NS(=O)(=O)c3cn(C)cn3)cc2C(=O)N([C@H](C)CO)C[C@@H]1C	1.11 ± 0.1	
NCC[C@H]1CC[C@H](NC(=O)NC2CCCCC2)[C@@H](CO)O1	0.995 ± 0.088	
CCS(=O)(=O)N1C[C@@]2(C1)CN([C@@H](CO)c1[nH]c3cc(OC)ccc3c21)C(=O)Nc1c(C)noc1C	0.951 ± 0.047	
CN(C)C(=O)c1cccc(-c2ccc3c(c2)[C@H]2[C@H](CCN2C(=O)c2cnccn2)[C@@H](CO)N3)c1	1.16 ± 0.02	
O=C(C[C@@H]1CC[C@@H]2[C@H](COC[C@@H](O)CN2C(=O)c2ccc3c(c2)OCO3)O1)NC1CCC1	1.07 ± 0.062	
CC(C)NC(=O)Nc1ccc2c(c1)C(=O)N(C)[C@H]1CC[C@@H](CC(=O)NCc3ccc(F)cc3)O[C@@H]1CO2	1.09 ± 0.037	
CC(C)CC#Cc1ccc([C@@H]2[C@H]3CN(S(=O)(=O)c4cccc(F)c4)CC(=O)N3[C@H]2CO)cc1	0.896 ± 0.13	
Cc1ccc(S(=O)(=O)Nc2ccc3c(c2)CC(=O)N([C@H](C)CO)C[C@@H](C)[C@@H](CN(C)S(=O)(=O)c2ccccc2)O3)cc1	0.949 ± 0.021	
O=C(NC1CCCC1)N[C@@H]1C=C[C@@H](CC(=O)N2CCOCC2)O[C@@H]1CO	1.08 ± 0.096	

SMILES	viability index [1]	viability index (library set: Broad Institute Blood Stage)
C[C@@H]1CCn2cc(nn2)COC[C@H](c2ccccc2)NC1=O	0.932 ± 0.072	
CN1C(=O)c2cc(NC(=O)Nc3ccccc3Cl)ccc2OC[C@@H]2O[C@H](CC(=O)NCCCN3CCOCC3)CC[C@H]21	1.14 ± 0.13	
CCCNC(=O)N1C[C@]2(CCN(CC2)C(=O)Cc2cccnc2)c2c([nH]c3cc(OC)ccc23)[C@@H]1CO	1.06 ± 0.12	
Cc1noc(C)c1NC(=O)Nc1ccc2c(c1)C(=O)N([C@H](C)CO)C[C@@H](C)[C@H](CN(C)S(=O)(=O)c1cccs1)OCCCC[C@@H](C)O2	1.04 ± 0.023	
CCCNC(=O)N1C[C@]2(CCN(CC2)S(=O)(=O)c2ccccc2)c2c([C@@H]1CO)n(C)c1cc(OC)ccc21	1.02 ± 0.017	
COc1ccc2c3c([C@@H](CO)N(C[C@]33CCN(Cc4ccncc4)CC3)C(=O)CN3CCOCC3)n(C)c2c1	1.04 ± 0.013	
CCC(=O)N1CC(=O)N2[C@H](C1)[C@@H](c1ccc(C#CCC(C)C)cc1)[C@@H]2CO	0.937 ± 0.026	
CCS(=O)(=O)N1CC2(C1)[C@@H](c1ccccc1)[C@@H](CO)N2Cc1ccccn1	1.1 ± 0.034	
CCNC(=O)[C@H]1[C@H](CO)[C@H]2Cn3c(ccc(-c4cncnc4)c3=O)[C@H]2N1C(=O)NC1CCCC1	1 ± 0.035	
COc1ccccc1-c1cccc(-c2nc(C(=O)NCc3ccncc3)cc3c2[C@H](CCO)N([S@@](=O)C(C)(C)C)C3)c1	1.08 ± 0.025	
COc1ccc(NC(=O)N(C)C[C@H]2Oc3c(NC(=O)Nc4ccccc4)cccc3C(=O)N([C@@H](C)CO)C[C@H]2C)cc1		0.724 ± 0.05
COCC(=O)N1[C@@H](C#N)[C@@H](c2ccccc2C2=CCCC2)[C@@H]1CO	1.08 ± 0.044	
O=C(c1cccc(F)c1)N1CC2(C1)[C@@H](c1ccccc1)[C@@H](CO)N2C(=O)C1CCCCC1	1.1 ± 0.041	
CC(C)NC(=O)Nc1ccc2c(c1)C(=O)N([C@@H](C)CO)C[C@H](C)[C@@H](CN(C)C(=O)C1CCCCC1)OCCCC[C@H](C)O2	1.03 ± 0.082	
COCC(=O)Nc1ccc2c(c1)C(=O)N(C)C[C@H](OC)[C@@H](C)CN(C(=O)c1ccncc1)[C@H](C)CO2	1.14 ± 0.035	
C[C@@H]1CN([C@H](C)CO)C(=O)c2c(c3ccccc3n2C)-c2ccccc2CO[C@@H]1CN(C)C	0.985 ± 0.16	
CCCC(=O)N1C[C@@]2(C1)CN(Cc1ccccc1F)[C@@H](CO)c1c2c2ccc(OC)cc2n1C	1.05 ± 0.09	
COc1ccc(S(=O)(=O)N(C)C[C@H]2OCCCC[C@H](C)Oc3ccc(NC(=O)Cc4ccccc4)cc3C(=O)N([C@@H](C)CO)C[C@@H]2C)cc1	1.08 ± 0.053	
O=C(c1ccc(F)cc1)N1CC(=O)N2[C@H](CO)[C@@H](c3ccc(C#CCC4CCCC4)cc3)[C@@H]2C1	1.05 ± 0.035	
CO[C@@H]1CN(C)C(=O)c2cc(NC(=O)NC3CCCCC3)ccc2OC[C@H](C)N(CC2CCOCC2)C[C@@H]1C	1.04 ± 0.039	
C[C@H](CO)N1C[C@H](C)[C@H](CN(C)C(=O)[C@H](Cc2ccccc2)N(C)C)OCc2ccccc2-c2ccccc2C1=O	0.975 ± 0.12	
O=C(C1CCOCC1)N1CC(=O)N2[C@H](CO)[C@H](c3ccc(C#CCc4ccccc4)cc3)[C@H]2C1	1.07 ± 0.076	
O=C(c1cnccn1)N1CC(=O)N2[C@H](C1)[C@H](c1ccc(-c3cccc(F)c3)cc1)[C@@H]2CO	0.926 ± 0.048	

SMILES	viability index [1]	viability index (library set: Broad Institute Blood Stage)
COc1ccc(NC(=O)N2CCCCN3[C@H](CO)[C@H](c4ccc(-c5ccccc5F)cc4)[C@@H]3C2)cc1	1.14 ± 0.064	
Cc1ccccc1-c1ccc([C@H]2[C@H]3CN(S(C)(=O)=O)CC(=O)N3[C@H]2CO)cc1	0.975 ± 0.047	
CC(C)NC(=O)N1[C@H](C#N)[C@H](c2ccccc2-c2ccc(F)cc2)[C@@H]1CO	0.934 ± 0.039	
CCC(=O)N1CC2(C1)[C@@H](c1ccc(-c3ccccc3C)cc1)[C@@H](CO)N2C(=O)CC	1 ± 0.01	
CC(=O)N1[C@@H](CO)[C@H](c2ccccc2)[C@@H]1CNC(=O)CN1CCOCC1	1.06 ± 0.045	
COc1ccc(S(=O)(=O)Nc2ccc3c(c2)C(=O)N([C@H](C)CO)C[C@@H](C)[C@@H](CN(C)S(=O)(=O)c2ccc(Cl)cc2)OCCCC[C@H](C)O3)cc1	0.864 ± 0.13	
O=C(C[C@@H]1C=C[C@@H](NC(=O)CCN2CCCCC2)[C@H](CO)O1)Nc1nccs1	0.9128 ± 0.0086	
O=C1N[C@@H](c2ccccc2)COCc2cnnn2CC[C@@H]1Cc1ccc(C(F)(F)F)cc1	1.0478 ± 0.0005	
OC[C@@H]1[C@@H](c2ccccc2)C2(CN(Cc3cc(F)ccc3F)C2)N1CC1CCCC1	1.01 ± 0.015	
CCCNC(=O)N1CC(=O)N2[C@H](C1)[C@@H](c1ccc(-c3ccc(F)cc3)cc1)[C@@H]2CO	1.06 ± 0.045	
C[C@H](NC(=O)C[C@H]1C=C[C@H](NC(=O)c2cccnc2)[C@@H](CO)O1)c1ccccc1	1.08 ± 0.069	
COc1ccc(S(=O)(=O)Nc2ccc3c(c2)C(=O)N([C@H](C)CO)C[C@H](C)[C@H](CN(C)C(=O)Nc2c(C)noc2C)OCCCC[C@@H](C)O3)cc1	1.05 ± 0.069	
O=C(C[C@H]1CC[C@H]2[C@@H](COC[C@H](O)CN2Cc2nccs2)O1)NCc1ccccc1Cl	1.1 ± 0.057	
CO[C@@H]1CN(C)C(=O)c2cc(NS(=O)(=O)Cc3ccccc3)ccc2OC[C@@H](C)N(Cc2nccs2)C[C@H]1C	0.972 ± 0.021	
COCCNC(=O)C[C@@H]1CC[C@@H]2[C@@H](COc3ccc(NS(=O)(=O)c4ccc(Cl)cc4)cc3C(=O)N2C)O1	1.1 ± 0.092	
CCNC(=O)C[C@H]1CC[C@@H]2[C@H](COC[C@@H](O)CN2C(=O)C2CCCC2)O1	1.047 ± 0.0089	
CN(C)C(=O)C[C@@H]1CC[C@H]2[C@@H](COc3ccc(NC(=O)C4CCCCC4)cc3C(=O)N2C)O1	0.984 ± 0.11	
CO[C@@H](CN(C)S(=O)(=O)c1ccc(C)cc1)[C@@H](C)CN([C@H](C)CO)S(=O)(=O)c1cccc(Cl)c1	1.05 ± 0.068	
O=C(C[C@H]1CC[C@@H]2[C@H](COC[C@@H](O)CN2C(=O)Nc2ccc(Cl)cc2)O1)NCC1CCCCC1	1.02 ± 0.02	
COc1cccc(-c2ccccc2[C@H]2[C@@H](C#N)N(C(=O)c3ccccn3)[C@@H]2CO)c1	1.07 ± 0.16	
COc1cccc(NC(=O)N2CC3(C2)[C@H](c2ccccc2)[C@@H](CO)N3C(C)=O)c1	1.089 ± 0.0018	
COc1ccc(-c2ccc([C@H]3[C@H](CO)N4C(=O)CN(Cc5ccccc5)C[C@@H]34)cc2)cc1	1.06 ± 0.046	
C/C=C/c1ccc2c(c1)[C@@H]1[C@@H](CCN1C(=O)c1cnccn1)[C@H](CO)N2	1.04 ± 0.025	

Reference: the supplement of paper PMC4723716
